26 molecules from the antibiotic and cytotoxicity screens of Wong et al. (2023) can be followed below.

For one assay, the system named is HSkMC. Kind of assay: cytotoxicity call (relative viability < 0.9). Conditions: 10 µM.
Another assay concerns HepG2. The assay can be described thus: cytotoxicity call (relative viability < 0.9). Conditions: 10 µM.
A further assay deals with S. aureus RN4220. The assay can be described thus: growth inhibition call (relative growth <= 0.2). Conditions: 50 µM.

This is one part of the list.

On to `COc1ccccc1C#Cc1ccc2c(c1)O[C@H](CN(C)Cc1cncnc1)[C@@H](C)CN([C@@H](C)CO)S2(=O)=O`, for which the cytotoxicity call in the assay with HSkMC and with HepG2 was “inactive” each time. The growth inhibition call with S. aureus RN4220 is “inactive”.

With `COc1cccc(C#Cc2ccc3c(c2)O[C@@H](CN(C)S(=O)(=O)c2ccccc2F)[C@H](C)CN([C@@H](C)CO)S3(=O)=O)c1`, the cytotoxicity call in the assay with HSkMC and in the assay with HepG2 was “inactive” throughout. Besides, the growth inhibition call with S. aureus RN4220 was “inactive”.

In the case of `CO[C@@H]1CN(C)C(=O)c2cc(NC(=O)Nc3ccc(Cl)cc3)ccc2OC[C@@H](C)N(C(=O)Nc2c(C)noc2C)C[C@H]1C`, the cytotoxicity call with HSkMC and in the assay with HepG2 was “inactive” throughout. Also, the growth inhibition call with S. aureus RN4220 is “inactive”.

As for `COc1ccc(S(=O)(=O)N(C)C[C@H]2OCCCC[C@@H](C)Oc3ccc(NC(=O)Nc4c(C)noc4C)cc3C(=O)N([C@@H](C)CO)C[C@@H]2C)cc1`, the cytotoxicity call with HSkMC and in the assay on HepG2 was “inactive” in each case. The growth inhibition call in the assay with S. aureus RN4220 is “inactive”.

Consider `O=C(CCCCCCC(=O)Nc1ccc([C@H]2O[C@@H](CSc3nc(-c4ccccc4)c(-c4ccccc4)o3)C[C@H](c3ccccc3)O2)cc1)NO`, for which the cytotoxicity call with HSkMC and with HepG2 was “inactive” each time. For the same molecule, the growth inhibition call in the assay on S. aureus RN4220 is “inactive”.

For the molecule `Cc1cccc(NC(=O)Nc2ccc3c(c2)C(=O)N(C)[C@H]2CC[C@H](CC(=O)NCc4ccccc4Cl)O[C@@H]2CO3)c1`, the cytotoxicity call in the assay on HSkMC and in the assay on HepG2 was “inactive” throughout. Also, in the assay on S. aureus RN4220, the growth inhibition call is “inactive”.

Take `C[C@@H]1CN([C@H](C)CO)C(=O)c2cccc(NC(=O)Nc3ccccc3)c2O[C@@H]1CN(C)Cc1ccc(Cl)c(Cl)c1`: the cytotoxicity call with HSkMC and with HepG2 was “inactive” each time. For the same molecule, the growth inhibition call with S. aureus RN4220 was “inactive”.

With `C[C@@H]1CN([C@@H](C)CO)S(=O)(=O)c2ccc(Br)cc2O[C@H]1CN(C)Cc1ccc(-c2ccccc2)cc1`, the cytotoxicity call in the assay on HSkMC and in the assay with HepG2 was “inactive” throughout. For the same molecule, the growth inhibition call in the assay on S. aureus RN4220 was “inactive”.

For `CN1CCN(C(=O)C[C@H]2C=C[C@H](NC(=O)c3ccc4c(c3)OCO4)[C@H](CO)O2)CC1`, the cytotoxicity call with HSkMC and with HepG2 was “inactive” in each case. For the same molecule, the growth inhibition call in the assay with S. aureus RN4220 is “inactive”.

For the molecule `C[C@@H]1CN([C@H](C)CO)C(=O)c2cccc(NC(=O)c3ccc(-c4nccs4)cc3)c2O[C@@H]1CN(C)S(=O)(=O)c1cn(C)cn1`, the cytotoxicity call in the assay with HSkMC and in the assay on HepG2 was “inactive” throughout. In addition, the growth inhibition call with S. aureus RN4220 is “inactive”.

Consider `C[C@H](CO)N1C[C@H](C)[C@@H](CN(C)C(=O)Nc2ccc3c(c2)OCO3)OCCCC[C@H](C)Oc2ccc(NS(=O)(=O)c3cccs3)cc2C1=O`, for which the cytotoxicity call with HSkMC and with HepG2 was “inactive” each time. Moreover, the growth inhibition call in the assay with S. aureus RN4220 was “inactive”.

Take `C[C@@H]1CN([C@H](C)CO)C(=O)c2c(c3ccccc3n2C)-c2ccccc2CO[C@H]1CN(C)Cc1ccc2c(c1)OCCN2C`: the cytotoxicity call in the assay with HSkMC and in the assay with HepG2 was “inactive” each time. Moreover, the growth inhibition call in the assay on S. aureus RN4220 was “inactive”.

Regarding `C[C@@H]1CCCCO[C@H](CN(C)Cc2ccncc2)[C@@H](C)CN([C@H](C)CO)C(=O)c2cc(NS(C)(=O)=O)ccc2O1`, the cytotoxicity call with HSkMC and in the assay with HepG2 was “inactive” throughout. Also, the growth inhibition call with S. aureus RN4220 was “inactive”.

As for `Cc1ccc(S(=O)(=O)Nc2ccc3c(c2)C(=O)N(C)[C@@H]2CC[C@H](CC(=O)NCCc4ccncc4)O[C@@H]2CO3)cc1`, the cytotoxicity call in the assay with HSkMC and in the assay with HepG2 was “inactive” in each case. For the same molecule, the growth inhibition call in the assay with S. aureus RN4220 was “inactive”.

As to `CC(C)N1C[C@H](C)[C@@H](CN(C)Cc2ccc(Oc3ccccc3)cc2)Oc2c(NC(=O)C3CCNCC3)cccc2C1=O`, the cytotoxicity call with HSkMC and in the assay with HepG2 was “active” throughout. Further, in the assay with S. aureus RN4220, the growth inhibition call is “active”.

Consider `C[C@H](CO)N1C[C@H](C)[C@@H](CN(C)Cc2ccccc2)OCCCC[C@H](C)Oc2ccc(NC(=O)NC3CCCCC3)cc2C1=O`, for which the cytotoxicity call in the assay on HSkMC and in the assay with HepG2 was “inactive” in each case. In addition, the growth inhibition call in the assay on S. aureus RN4220 was “inactive”.

For the molecule `OCC(O)C(O)C(O)CO` (stereo not drawn), the cytotoxicity call with HSkMC and with HepG2 was “inactive” in each case. Also, the growth inhibition call with S. aureus RN4220 is “inactive”.

On to `C[C@H](CO)N1C[C@H](C)[C@H](CN(C)C(=O)Nc2ccc(F)cc2)OCCCC[C@H](C)Oc2ccc(NC(=O)C3CCCCCC3)cc2C1=O`, for which the cytotoxicity call in the assay on HSkMC and in the assay with HepG2 was “inactive” throughout. The growth inhibition call with S. aureus RN4220 is “inactive”.

As for `COc1ncccc1C#N`, the cytotoxicity call with HSkMC and in the assay on HepG2 was “inactive” in each case. Further, in the assay with S. aureus RN4220, the growth inhibition call is “inactive”.

As for `CCCNC(=O)Nc1ccc2c(c1)C(=O)N(C)C[C@H](OC)[C@@H](C)CN(C(=O)C1CCOCC1)[C@H](C)CO2`, the cytotoxicity call with HSkMC and in the assay with HepG2 was “inactive” throughout. In addition, the growth inhibition call in the assay on S. aureus RN4220 was “inactive”.

Consider `COc1cc2c(cc1OC)CN(C(=O)[C@H]1[C@@H]3C(=O)O[C@@H](c4ccccc4)[C@@H](c4ccccc4)N3[C@@H](c3ccc(O)cc3)[C@]13C(=O)Nc1ccc(C#CC4=CCCCC4)cc13)CC2`, for which the cytotoxicity call in the assay on HSkMC and in the assay with HepG2 was “inactive” each time. Also, the growth inhibition call with S. aureus RN4220 was “inactive”.

Turning to `C[C@@H]1CCCCO[C@@H](CN(C)C(=O)c2ccccc2)[C@@H](C)CN([C@H](C)CO)C(=O)c2cc(NC(=O)Cc3ccccc3)ccc2O1`, the cytotoxicity call with HSkMC and in the assay on HepG2 was “inactive” each time. In addition, the growth inhibition call in the assay with S. aureus RN4220 was “inactive”.

For `COC1C=COC2(C)Oc3c(C)c(O)c4c(O)c(c(C=NN5CCN(C6CCCC6)CC5)c(O)c4c3C2=O)NC(=O)C(C)=CC=CC(C)C(O)C(C)C(O)C(C)C(OC(C)=O)C1C` (stereo not drawn), the cytotoxicity call in the assay with HSkMC and in the assay with HepG2 was “inactive” throughout. Besides, in the assay with S. aureus RN4220, the growth inhibition call is “inactive”.

Consider `Cc1noc(C)c1NC(=O)Nc1ccc2c(c1)C(=O)N([C@@H](C)CO)C[C@H](C)[C@H](CN(C)Cc1ccc(C(=O)O)cc1)OCCCC[C@@H](C)O2`, for which the cytotoxicity call in the assay on HSkMC and in the assay with HepG2 was “inactive” in each case. In addition, the growth inhibition call in the assay with S. aureus RN4220 was “inactive”.

Turning to `C[C@@H]1CN([C@H](C)CO)C(=O)c2cc(NC(=O)Nc3ccc(F)cc3)ccc2O[C@@H](C)CCCCO[C@H]1CN(C)C(=O)Nc1ccc(F)cc1`, the cytotoxicity call with HSkMC is “inactive”. The cytotoxicity call in the assay on HepG2 is “active”. The growth inhibition call in the assay with S. aureus RN4220 is “inactive”.

With `Cc1ccc(S(=O)(=O)Nc2ccc3c(c2)C(=O)N([C@H](C)CO)C[C@@H](C)[C@@H](CN(C)S(C)(=O)=O)OCCCC[C@@H](C)O3)cc1`, the cytotoxicity call in the assay on HSkMC (human skeletal muscle cells) and in the assay with HepG2 was “inactive” throughout. The growth inhibition call in the assay on S. aureus RN4220 is “inactive”.
